Data taken from PubChem BioAssay (NCATS).
Values joined by “and” are separate entries in the source; they are usually repeats but may differ in a detail not shown here. Identical values can stand only once. The inconclusive results got no clear call from the source; some entries with a clear call stand among them for comparison. For part of these data: Where the call is inconclusive, the potency comes from a doubtful curve fit. For part of these data: A note “side channel” means that the fit belongs to a control or component signal, not to the main read-out. Active and inactive are the calls of the source. Unless noted, the call rests on the fitted dose curve; in most records, active means well fitted curve in the direction sought with a large enough effect; inconclusive means small, poorly fitted or top-dose-only effect, or another doubt; inactive means no such curve, though single readings can be large; an effect the other way counts as inactive or inconclusive.

How the values were obtained:
[1] = Cell Viability - BJ (AID 421; calls by dose curve;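 further: potency means the concentration at half of the fitted maximal effect; cells exposed to compound for 40 hours at 37 °C before readout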); conditions: BJ fibroblast viability, qHTS
Outline: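 Cytotoxicity as drop in intracellular ATP (CellTiter-Glo, 20 min RT) after 40 hr compound exposure of BJ fibroblasts at 37 °C. Titrations scaled between DMSO and 100 uM tamoxifen, Hill-fitted for AC50.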

[2] = Cell Viability - Renal Proximal Tubule (AID 545); conditions: renal proximal tubule cells viability, primary cells of rat origin; at 91.7 µM (top of the series);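 further: cells exposed to compound for 40 hours; 0% = DMSO only and -100% = 100 µM tamoxifen; nearly all actives have a fitted effect of over 40% in size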
Outline: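 Primary rat renal proximal tubule cells (1000/well) were treated with compounds for 40 hr at 37 °C in complete medium. Intracellular ATP was measured by CellTiter-Glo luminescence, and AC50 values came from Hill-equation fits of concentration-response data.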

[3] = MultiTox-Fluor Cytotoxicity Assay - LYMP1-002 - Live Cells (AID 955); further: on the % scale 0 is the no-effect control and ±100 the full control effect
Outline: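 Human lymphoblastoid LYMP1-002 cells, 2500/well in complete medium, rested 5 hr at 37 C, then exposed to compounds for 16 hr at 37 C. Live-cell protease cleavage of GF-AFC read by fluorescence (Ex/Em 405/510) after 60 min at room temperature; AC50 from Hill fits.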

[4] = Cell Viability - LYMP2-024 (AID 988);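 further: plate controls were DMSO only for no effect and 92 µM tetraoctylammonium bromide for full effect; nearly all actives have a fitted effect of over 60% in size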
Outline: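 Human lymphoblastoid cells (2500/well) in complete medium were preincubated 5 hr at 37 C, then exposed to compounds for 24 hr at 37 C. Intracellular ATP was read by CellTiter-Glo luminescence; AC50 from Hill-equation fits of concentration-response data.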

[5] = molecular target: Androgen receptor (Homo sapiens) (UniProt P10275); experiment: qHTS assay for small molecule agonists of androgen receptor signaling (AID 588515; active means well fitted curve in the direction sought with a large enough effect in the signal ratio, with a control signal flat; inconclusive means small, poorly fitted or top-dose-only effect, or effect the other way, or a change in a side signal; inactive means no such curve, though single readings can be large or run the other way; the % refers to the signal ratio; further: potency means the concentration at half of the fitted maximal effect); conditions: AR-UAS-bla HEK293, beta-lactamase ratio, agonist 16 h; activation: stronger effect = higher value
Outline: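 EC50 and efficacy came from Hill fits of titrations (up to 92 uM) normalized to 30 nM R1881 as 100% and DMSO as 0%. Compound exposure was 16 h at 37 C on AR-UAS-bla HEK293 cells, with a 405/460/530 nm CCF4 fluorescence read.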

[6] = molecular target: Androgen receptor (Homo sapiens) (UniProt P10275); experiment: qHTS assay for small molecule antagonists of androgen receptor signaling (AID 588516; active means well fitted curve in the direction sought with a large enough effect in the signal ratio, with a control signal flat, not every such curve was filed as active; inconclusive means small, poorly fitted or top-dose-only effect, or effect the other way, or a change in a side signal; inactive means no such curve, though single readings can be large or run the other way; the % refers to the signal ratio; further: on the % scale 0 is the no-effect control and ±100 the full control effect); conditions: AR-UAS-bla HEK293, beta-lactamase ratio, antagonist mode, 16 h; activity change, negative = inhibition: at 76.8 µM (top of the series)
Outline: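 Antagonist-mode qHTS: inhibition of R1881 (10 nM)-driven beta-lactamase expression in GripTite HEK 293 cells is measured after 16 h; values are Hill-derived IC50s normalized between R1881 and DMSO wells.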

[7] = molecular target: Bile acid receptor (Homo sapiens) (UniProt Q96RI1); experiment: qHTS assay for small molecule antagonists of farnesoid X receptor signaling (AID 588526; calls by dose curve; further: on the % scale 0 is the no-effect control and ±100 the full control effect); conditions: HEK293T FXR-UAS-bla, beta-lactamase ratio, antagonist mode; activity change, negative = inhibition: at 76.7 µM (top of the series)
Outline: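 Concentration-response titrations were fitted to the Hill equation for half-maximal inhibition and maximal response, with data normalised to 50 uM chenodeoxycholic acid and DMSO control wells. Cells: FXR-UAS-bla HEK293T, dialyzed FBS.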

[8] = molecular target: Bile acid receptor (Homo sapiens) (UniProt Q96RI1); experiment: qHTS assay for small molecule agonists of farnesoid X receptor signaling (AID 588527; calls by dose curve; further: potency means the concentration at half of the fitted maximal effect); conditions: HEK293T FXR-UAS-bla, beta-lactamase ratio, 16 h; activation: stronger effect = higher value
Outline: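 Agonist-mode beta-lactamase reporter in GeneBLAzer FXR-UAS-bla HEK293T cells, titration up to 92 uM, 16 h exposure at 37 C, CCF4 fluorescence. Response scaled to DMSO (0%) and 100 uM chenodeoxycholic acid (100%), then Hill-fitted for EC50 and efficacy.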

[9] = molecular target: Glucocorticoid receptor (Homo sapiens) (UniProt P04150); experiment: qHTS assay for small molecule antagonists of glucocorticoid receptor signaling (AID 588533; active means well fitted inhibition curve with a large enough effect in the signal ratio, with a control signal flat, not every such curve was filed as active; inconclusive means small, poorly fitted or top-dose-only effect, or effect the other way, or a change in a side signal; the % refers to the signal ratio;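 further: cells stimulated with 2 nM dexamethasone as agonist; on the % scale 0 is the no-effect control and ±100 the full control effect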); conditions: HeLa MMTV-bla, GRE beta-lactamase ratio, antagonist mode, 18 h; activity change, negative = inhibition: at 76.8 µM (top of the series)
[10] = molecular target: Peroxisome proliferator-activated receptor delta (Homo sapiens) (UniProt Q03181); experiment: qHTS assay for small molecule antagonists of peroxisome proliferator-activated receptor delta signaling (AID 588535; active means well fitted inhibition curve with a large enough effect in the signal ratio, with a control signal flat, not every such curve was filed as active; inconclusive means small, poorly fitted or top-dose-only effect, or effect the other way, or a change in a side signal; inactive means no such curve, though single readings can be large or run the other way; the % refers to the signal ratio); conditions: HEK293T PPARd-UAS-bla, beta-lactamase FRET ratio, 18 h; activity change, negative = inhibition: at 76.7 µM (top of the series)
Outline: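 GeneBLAzer PPAR-delta-UAS-bla HEK293T cells in medium with 2% charcoal/dextran FBS were preincubated 5 hrs at 37 C, then given compounds, incubated 18 hrs at 37 C, and read by CCF4 beta-lactamase fluorescence; IC50 from Hill fits.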

[11] = molecular target: Peroxisome proliferator-activated receptor gamma (Homo sapiens) (UniProt P37231); experiment: qHTS assay for small molecule agonists of peroxisome proliferator-activated receptor gamma signaling (AID 588536; active means well fitted curve in the direction sought with a large enough effect in the signal ratio, with a control signal flat, not every such curve was filed as active; inconclusive means small, poorly fitted or top-dose-only effect, or effect the other way, or a change in a side signal; inactive means no such curve, though single readings can be large or run the other way; the % refers to the signal ratio;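 further: 0% = DMSO basal wells and 100% = rosiglitazone at 2 µM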); conditions: HEK293 PPARg-UAS-bla, beta-lactamase ratio, 16 h; activation: at 76.7 µM (top of the series), percent of rosiglitazone response, DMSO as zero
Outline: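 Ratiometric blue/green fluorescence (405 nm excitation; 460 and 530 nm emission) from CCF4-loaded HEK293 reporter cells serves as signal. Exposure to test compounds lasts 16 h at 37 C in medium containing 1% charcoal/dextran-treated serum.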

[12] = molecular target: Peroxisome proliferator-activated receptor gamma (Homo sapiens) (UniProt P37231); experiment: qHTS assay for small molecule antagonists of peroxisome proliferator-activated receptor gamma signaling (AID 588537; active means well fitted inhibition curve with a large enough effect in the signal ratio, with a control signal flat, not every such curve was filed as active; inconclusive means small, poorly fitted or top-dose-only effect, or effect the other way, or a change in a side signal; the % refers to the signal ratio; further: potency means the concentration at half of the fitted maximal effect;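 further: reporter cells co-stimulated with 50 nM rosiglitazone agonist during compound treatment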; on activity, negative = inhibition: % of control where 0% means no effect); conditions: HEK293 PPARg-UAS-bla, beta-lactamase ratio, antagonist mode; activity, negative = inhibition: at 76.8 µM (top of the series)
Outline: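 PPAR-gamma-UAS-bla HEK293 cells (3000/well, 1% charcoal/dextran-stripped FBS) were preincubated 6-6.5 h at 37 C, given titrated compounds, then stimulated with 50 nM rosiglitazone for 16 h. Beta-lactamase activity was read with CCF4 dye; IC50 came from Hill fits.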

[13] = molecular target: Thyroid hormone receptor beta (Homo sapiens) (UniProt P10828); experiment: qHTS assay for small molecule agonists of thyroid hormone receptor beta signaling (AID 588545; calls by dose curve; further: potency means the concentration at half of the fitted maximal effect); conditions: TR-UAS-bla GripTite HEK 293, beta-lactamase ratio, agonist mode, 18 h; activation: at 76.7 µM, percent of T3 response, DMSO as zero
Outline: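 Agonist-mode beta-lactamase reporter assay, HEK 293 cells, 2% charcoal/dextran FBS; cells plated 4 hrs, compound 18 hrs at 37 C, CCF4 2 hrs RT. Normalized to 10 nM T3 (100%) and DMSO (0%); Hill fit gives EC50, efficacy.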

[14] = molecular target: Luciferin 4-monooxygenase (Photinus pyralis) (UniProt P08659); experiment: Biochemical firefly luciferase enzyme assay for NPC (AID 624030); further: potency means the concentration at half of the fitted maximal effect; nearly all actives have a fitted effect of over 70% in size
Outline: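 Counter-screen for direct inhibition of the luciferase enzyme by approved-drug library compounds, run at 10 nM enzyme in 50 mM Tris acetate (final). Luminescence was read within 5 min of enzyme-buffer addition and normalized to PTC124 versus DMSO (0%).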

[15] = qHTS assay for small molecule disruptors of the mitochondrial membrane potential - 1 hr assay (AID 651754; calls by dose curve; further: potency means the concentration at half of the fitted maximal effect; nearly all actives have a fitted effect of over 35% in size); conditions: ratio change, negative = depolarisation: at 92.2 µM (top of the series)
Outline: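 HepG2 cells, attached overnight at 37C, were exposed to compound or DMSO vehicle for 1 hr at 37C, 5% CO2, then stained with Mito-MPS dye for 30 min. Red aggregate versus green monomer fluorescence reports membrane potential.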

[16] = qHTS assay for small molecule agonists of the antioxidant response element (ARE) signaling pathway measured by Nrf2-dependant transcriptional activity (AID 720636; active means well fitted curve in the direction sought with a large enough effect in the repeat runs; inconclusive means weak or mixed curves; inactive means no such curve, though single readings can be large; an effect the other way counts as inactive or inconclusive; further: potency means the concentration at half of the fitted maximal effect)
Outline: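 Reporter gene assay, HepG2 ARE-luc: 16 hr compound, 37 C, 5% CO2; read-out luciferase luminescence.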

[17] = qHTS of pediatric cancer cell lines to identify multiple opportunities for drug repurposing: Primary screen for A673 cells (AID 1347092); conditions: A673 Ewing sarcoma viability, CellTiter-Glo ATP luminescence, 48 h; activity change, negative = cytotoxic: at 46 µM (top of the series); further: potency means the concentration at half of the fitted maximal effect; nearly all actives have a fitted effect of over 45% in size
Outline: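 A673 cells (500-1,000 cells/well in growth media) were pre-incubated 5 h at 37 degrees C, then exposed to compounds for 48 h. Viability was read as CellTiter-Glo luminescence; concentration-response curves came directly from the primary screen.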

[18] = qHTS of pediatric cancer cell lines to identify multiple opportunities for drug repurposing: Primary screen for SK-N-SH cells (AID 1347098);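 further: DMSO served as neutral control and bortezomib at 2.3 µM as positive control; on the % scale 0 is the no-effect control and ±100 the full control effect; nearly all actives have a fitted effect of over 65% in size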
Outline: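 Cells (500-1,000/well) rested 5 h, then received compounds for 48 h; metabolically active cells were measured by CellTiter-Glo luminescence. Final concentrations spanned up to 46 µM (MIPE, 11-point) or 0.59 nM-46 µM (NPC, 8-point) in primary screens, 11-point in follow-ups.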

[19] = qHTS of pediatric cancer cell lines to identify multiple opportunities for drug repurposing: Primary screen for NB1643 cells (AID 1347099);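 further: plate controls were DMSO neutral control for no effect and bortezomib positive control for full effect; nearly all actives have a fitted effect of over 50% in size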
Outline: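 CRCs from 8- or 11-point titrations (lowest final 0.59 nM NPC, 0.78 nM MIPE). Cell viability: CellTiter-Glo after 48 h incubation, 15 min room-temperature development, luminescence imaging.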
Tags describe the fitted curve by direction and shape or compound fluorescence and quenching.

UniProt P10275, sequence (P10275 whole entry, looked up): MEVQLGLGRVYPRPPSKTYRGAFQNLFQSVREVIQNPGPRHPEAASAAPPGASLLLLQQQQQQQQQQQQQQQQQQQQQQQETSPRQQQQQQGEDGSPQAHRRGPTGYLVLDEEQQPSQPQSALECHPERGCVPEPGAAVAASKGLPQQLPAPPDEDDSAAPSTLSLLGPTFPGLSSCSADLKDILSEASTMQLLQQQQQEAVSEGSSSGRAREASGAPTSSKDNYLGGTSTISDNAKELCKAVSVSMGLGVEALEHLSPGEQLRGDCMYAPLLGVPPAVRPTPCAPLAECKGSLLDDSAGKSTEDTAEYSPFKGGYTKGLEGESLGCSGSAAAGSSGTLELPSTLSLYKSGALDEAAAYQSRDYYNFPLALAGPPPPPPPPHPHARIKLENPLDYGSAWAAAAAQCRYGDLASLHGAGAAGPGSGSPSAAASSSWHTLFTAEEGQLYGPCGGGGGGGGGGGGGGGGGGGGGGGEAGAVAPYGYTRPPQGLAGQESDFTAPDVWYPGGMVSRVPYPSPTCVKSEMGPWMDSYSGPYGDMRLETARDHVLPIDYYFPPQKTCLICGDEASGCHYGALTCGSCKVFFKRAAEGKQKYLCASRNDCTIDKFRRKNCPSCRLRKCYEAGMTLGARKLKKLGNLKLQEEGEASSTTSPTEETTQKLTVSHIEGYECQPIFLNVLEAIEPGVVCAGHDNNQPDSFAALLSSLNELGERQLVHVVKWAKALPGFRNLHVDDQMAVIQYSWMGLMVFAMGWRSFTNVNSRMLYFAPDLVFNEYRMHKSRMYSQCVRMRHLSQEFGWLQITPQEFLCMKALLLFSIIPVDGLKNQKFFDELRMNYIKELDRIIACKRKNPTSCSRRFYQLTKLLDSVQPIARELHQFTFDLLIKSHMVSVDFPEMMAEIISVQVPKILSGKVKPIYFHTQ
UniProt P04150, sequence (P04150 whole entry, looked up): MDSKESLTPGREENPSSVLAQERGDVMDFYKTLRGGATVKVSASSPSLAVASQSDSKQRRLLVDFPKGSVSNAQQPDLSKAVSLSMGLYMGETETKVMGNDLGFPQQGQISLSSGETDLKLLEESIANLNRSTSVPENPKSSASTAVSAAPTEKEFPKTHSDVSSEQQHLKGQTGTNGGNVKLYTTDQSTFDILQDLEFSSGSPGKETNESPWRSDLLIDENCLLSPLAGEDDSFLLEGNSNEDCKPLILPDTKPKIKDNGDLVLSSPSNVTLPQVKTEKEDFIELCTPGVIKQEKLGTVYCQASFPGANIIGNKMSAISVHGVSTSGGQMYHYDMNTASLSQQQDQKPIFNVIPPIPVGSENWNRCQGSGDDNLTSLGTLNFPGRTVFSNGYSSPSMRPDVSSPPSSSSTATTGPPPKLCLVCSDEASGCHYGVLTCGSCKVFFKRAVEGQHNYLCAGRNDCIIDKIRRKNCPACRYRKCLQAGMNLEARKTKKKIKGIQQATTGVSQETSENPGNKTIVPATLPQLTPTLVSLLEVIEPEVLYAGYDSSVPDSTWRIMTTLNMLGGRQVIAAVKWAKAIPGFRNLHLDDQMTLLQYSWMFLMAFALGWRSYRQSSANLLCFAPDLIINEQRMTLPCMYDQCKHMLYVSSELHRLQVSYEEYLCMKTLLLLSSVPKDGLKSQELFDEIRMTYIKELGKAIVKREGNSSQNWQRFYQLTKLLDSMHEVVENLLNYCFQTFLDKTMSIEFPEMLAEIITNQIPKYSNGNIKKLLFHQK
UniProt P08659, sequence (P08659 whole entry, looked up): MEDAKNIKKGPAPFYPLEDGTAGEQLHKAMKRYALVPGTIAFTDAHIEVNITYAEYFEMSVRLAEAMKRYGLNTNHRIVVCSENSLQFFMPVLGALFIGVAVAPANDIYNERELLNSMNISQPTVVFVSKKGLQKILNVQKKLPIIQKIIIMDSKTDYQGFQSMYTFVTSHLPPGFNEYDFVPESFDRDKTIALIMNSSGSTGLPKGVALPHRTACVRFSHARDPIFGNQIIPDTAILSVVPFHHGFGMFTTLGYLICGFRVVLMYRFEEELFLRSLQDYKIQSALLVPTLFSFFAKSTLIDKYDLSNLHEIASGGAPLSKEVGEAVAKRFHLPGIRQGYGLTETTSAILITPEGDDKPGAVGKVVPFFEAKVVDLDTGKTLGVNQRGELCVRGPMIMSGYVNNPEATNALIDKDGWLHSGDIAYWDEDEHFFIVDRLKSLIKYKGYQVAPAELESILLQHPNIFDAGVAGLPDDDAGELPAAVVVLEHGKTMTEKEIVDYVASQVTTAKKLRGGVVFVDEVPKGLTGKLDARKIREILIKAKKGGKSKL
UniProt P10828, sequence (P10828 whole entry, looked up): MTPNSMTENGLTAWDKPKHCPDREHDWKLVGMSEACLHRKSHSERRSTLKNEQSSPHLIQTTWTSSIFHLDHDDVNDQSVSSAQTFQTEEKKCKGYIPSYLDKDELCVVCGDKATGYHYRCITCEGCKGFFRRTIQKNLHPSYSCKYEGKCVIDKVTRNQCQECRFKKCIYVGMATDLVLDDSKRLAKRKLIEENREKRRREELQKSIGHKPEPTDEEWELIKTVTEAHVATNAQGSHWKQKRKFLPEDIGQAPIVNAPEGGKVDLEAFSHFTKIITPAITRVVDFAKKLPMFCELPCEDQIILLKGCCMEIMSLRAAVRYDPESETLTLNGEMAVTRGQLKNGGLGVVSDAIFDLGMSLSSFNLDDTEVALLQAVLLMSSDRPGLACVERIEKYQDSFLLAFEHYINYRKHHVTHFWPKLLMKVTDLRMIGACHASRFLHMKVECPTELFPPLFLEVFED
UniProt Q03181, sequence (Q03181 whole entry, looked up): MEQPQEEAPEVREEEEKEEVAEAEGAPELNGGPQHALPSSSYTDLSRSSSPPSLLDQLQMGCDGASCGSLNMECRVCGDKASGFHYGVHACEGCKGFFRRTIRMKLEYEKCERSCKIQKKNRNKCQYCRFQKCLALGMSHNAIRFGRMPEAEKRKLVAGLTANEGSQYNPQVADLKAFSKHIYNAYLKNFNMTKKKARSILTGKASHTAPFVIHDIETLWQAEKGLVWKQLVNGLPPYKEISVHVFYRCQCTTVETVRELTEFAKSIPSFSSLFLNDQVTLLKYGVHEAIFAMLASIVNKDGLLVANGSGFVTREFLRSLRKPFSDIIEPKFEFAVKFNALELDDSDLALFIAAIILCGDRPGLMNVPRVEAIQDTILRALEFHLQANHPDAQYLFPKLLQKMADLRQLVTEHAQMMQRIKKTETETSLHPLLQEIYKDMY

CCCCOC(=O)c1ccc(O)cc1
inconclusive: Potency [5] 25.1 µM [side channel, rising, single point] | activation [5] -23.6% | activity change, negative = inhibition [6] -50.9% and -53.7% | activity change, negative = inhibition [7] -7.85% | Potency [8] 0.001 µM [side channel, falling, full curve, poor fit] | activity change, negative = inhibition [10] -1.32% | activation [11] -6.46% and -6.44% | Potency [12] 39.8 µM [inhibitor, partial curve] | activity, negative = inhibition [12] -30.5% | Potency [13] 0.0011 µM [side channel, rising, full curve, poor fit] | Potency [14] 32.2 µM [inhibitor, partial curve, poor fit] | Potency [15] 37.6 µM [inhibitor, partial curve] | Potency [16] 13.7 µM [activator, full curve, poor fit] and 37.6 µM [activator, partial curve, poor fit] | Potency [17] 21.1 µM [cytotoxic, single point]
inactive: Potency [1] > 92 µM | activity change, negative = cytotoxicity [2] -27.7% | Potency [3] | Potency [4] | Potency [9] | Potency [18] | Potency [19]
